Hit rate of the full screen: of about 48,000 compounds, about 450 (0.94%) were called active. Not shown: some 19% with an inconclusive outcome. The call rests on the fitted dose curve; in most records, active means well fitted inhibition curve with a large enough effect; inconclusive means small, poorly fitted or top-dose-only effect; inactive means no such curve, though single readings can be large or run the other way. This is one part of the list.
assay: Primary qHTS for Identification of Small Molecule Inhibitors of Huntingtin Promoter Activity; conditions: HEK293 HTT promoter firefly luciferase reporter (activity 0% = vehicle and -100% = no light), 24 h; series mostly up to 57.5 µM; activity change, negative = inhibition: at the top concentration; further: nearly all actives have a fitted effect of over 50% in size
Summary of the method: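 HEK293 luciferase promoter-reporter cells (2,500/well) plated 24 h, then compounds added at up to 57.5 uM final for 24 h at 37 °C. Firefly luminescence by Dual-Glo, normalized to vehicle (0%) and zero RLU (-100%).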

Activity change, negative = inhibition, inactive:
COc1ccc(Cl)cc1NC(=O)c1cn(C2CCCCC2)c(=O)c2c1c1ccccc1n2C -14.7%
CCOc1ccc(Nc2nc3cc(Cl)c(Cl)cc3nc2-n2nc(C)cc2C)cc1 -6.82%
Cc1c(C(=O)N(Cc2ccc(N(C)C)cc2)CC2CCCO2)oc2ccc(Cl)cc12 (stereo unspecified) -2.93%
COc1ccc(N2CCN(c3csc4ccc(Cl)cc4c3=O)CC2)cc1 5.3%
COc1ccc(CNC(=O)c2cc(-c3ccc(C)cc3)nc3n[nH]c(-c4ccc(Br)cc4)c23)cc1 -13.3%
CCc1ccccc1Nc1nn2c(=O)c3ccc(C(=O)NCc4ccccc4OC)cc3nc2s1 -14.3%
CCOc1ccc(Nc2ncnc3c2nc2n3CCCC2)cc1 -10.4%
CCOC(=O)c1c(C)[nH]c(C)c1S(=O)(=O)N1CCCC(C(=O)Nc2ccc(C)cn2)C1 (stereo unspecified) -14.4%
O=C1OC(CN2CCOCC2)CN1/N=C/c1ccc([N+](=O)[O-])o1 (stereo unspecified) 6.8%
COc1ccccc1Cn1cc(C(=O)c2ccc(C)cc2)c(=O)c2cc(C)ccc21 -5.04%
CCN(c1ccccc1)c1ccc2cc(S(=O)(=O)N3CCCC3)ccc2n1 2.97%
Cc1ccc(-n2nc(CO)c(C(=O)NCCCc3ccccc3)n2)cc1C 9.8%
CCOc1ccccc1CNC(=O)c1c(C)oc2ncnc(N3CCOCC3)c12 -9.08%
CCOc1ccc(NC(=O)CSc2ccc(-c3sc(-c4ccccc4)nc3C)nn2)cc1 10%
CCOC(=O)c1oc2ccc(S(=O)(=O)n3nc(-c4cc(OC)c(OC)c(OC)c4)cc3N)cc2c1C -27.6%
CCOC(=O)CNC(=O)Nc1cc(C(=O)NCc2ccccc2OC)ccc1N1CCCC1 -6.11%
Cc1ccccc1C(=O)NC1(C(F)(F)F)N=C(c2ccccc2)N(C2CCCCC2)C1=O (stereo unspecified) -11.9%
CCOc1ccc(NC(=O)C2CCCN(c3ccc(Sc4ccc(C)cc4)nn3)C2)cc1 (stereo unspecified) -3.4%
O=C(NC(=O)c1ccccc1)Nc1ccc(-c2cc(C(F)(F)F)nn2-c2ccccc2)cc1 4.2%
COC(=O)C(CCSC)NC(=O)c1cc2c(n(-c3ccc(Cl)cc3)c1=O)CCCC2=O (stereo unspecified) -1.57%
CCCn1c(CNC(=O)c2ccc(F)cc2)nc2ccccc21 0.406%
Cc1ccc2oc(-c3ccc(C)c(NC(=O)c4ccc(N5CCC(C)CC5)c([N+](=O)[O-])c4)c3)nc2c1 2.63%
O=c1c2cc3c(cc2n(Cc2ccc(F)cc2)c(=O)n1Cc1nc(-c2ccccc2)no1)OCO3 -5.56%
Cc1cccc(NC(=O)c2ccc3snnc3c2)c1C -0.964%
CC(C)CN(CCCNC(=O)CN1N=C(c2ccc(Cl)cc2)CCC1=O)CC(C)C -11%
Clc1ccc2c(c1)NC(c1ccncc1)=NC(c1cccs1)=N2 -7.09%
C[C@]12C=CC(=O)C=C1CC[C@@H]1[C@@H]2[C@@H](O)C[C@@]2(C)[C@@H]1CC[C@]2(O)C(=O)CO -0.457%
CCOc1ccccc1NC(=O)C(CC(C)C)NS(=O)(=O)c1ccc2c(c1)oc(=O)n2C (stereo unspecified) -0.779%
COC(=O)c1c(SC)nc2ccccc2c1OCc1ccc(Cl)cc1 -37.7%
O=C(COCc1cc(-c2ccc3c(c2)OCO3)on1)N1CCN(c2cccc(Cl)c2)CC1 -12.4%
CNS(=O)(=O)c1cn(CC(=O)N2CCN(c3cccc(C)c3C)CC2)cc1S(=O)(=O)NC -7.05%
Cc1ccc(S(=O)(=O)N(Cc2nc(-c3cccc(C)c3)no2)C2CCCCC2)cc1 -30.2%
O=c1cc(-c2ccccc2)nc(SCc2nc(-c3ccc(Cl)cc3)no2)[nH]1 7.53%
CCN1CCN(C(=O)c2cnn(-c3cccc(Cl)c3)c2C2CCN(C(=O)OC(C)(C)C)CC2)CC1 -11%
Cc1ccsc1C(=CCCN1CCC[C@@H](C(=O)O)C1)c1sccc1C 3.39%
CSC1=NC2(CCN(C(=O)NC3CCCCC3)CC2)N=C1c1ccc(C)cc1 -15.9% [at 11.5 µM]
COc1ccc(N2Cc3cccc(C(=O)Nc4cc(C)cc(C)c4)c3C2=O)cc1 3.43%
Cc1noc(-c2ccc(-c3noc(-c4cccc(F)c4)n3)cc2)n1 0.0129%
NC(=O)C1CCN(C(=O)c2cccc(NC(=O)c3nsc4ccccc34)c2)CC1 43.4%
Cn1c(=O)c2c(nc(SCC(=O)Nc3ccccc3)n2Cc2ccccc2F)n(C)c1=O 1.08%
CCN(CC)S(=O)(=O)c1nnc(NC(=O)COc2ccccc2F)s1 -7.45%
Nc1c(C(=O)Nc2ccc(OC(F)(F)F)cc2)nnn1Cc1ccccc1 9.54%
CCc1c(CN2CCN(c3cccc(C)c3C)CC2)csc1C -9.89%
O=C(C1COc2ccccc2O1)N(Cc1cccnc1)c1nc2ccc(Cl)cc2s1 (stereo unspecified) -5.06%
Cc1ccc(C#N)c(=O)n1CC(=O)Nc1ccccc1C(F)(F)F -8.99%
Cc1ccc(-n2c3nc(=O)[nH]c(=O)c-3cc3c(C)nn(-c4ccccc4)c32)cc1Cl -4.03%
O=C(NC1CCCCC1)c1ccc(Cn2c(SCc3ccc(F)cc3)nc3cccnc32)cc1 6.22%
Cc1ccc2c(c1)-c1onc(C(=O)N3CCN(c4ccc(Cl)cc4)CC3)c1CO2 -5.56%
Cc1cccc(C)c1NC(=O)NCCc1c[nH]c2ccccc12 -6.56%
CCCNC(=O)C1CCC(Cn2c(=O)c3sccc3n(Cc3ccccc3F)c2=O)CC1 (stereo unspecified) 2.38%
CNCCCN1c2ccccc2CCc2ccccc21 -10.6%
COc1ccccc1CNC(=O)CCn1nc(C)c2c(C)n(-c3ccccc3)nc2c1=O -15.8%
O=S(=O)(c1ccccc1)c1nnn2c1nc(NCc1ccc(F)cc1)c1sccc12 8.35%
Brc1ccc(-c2nc3ccccn3c2Nc2ccc3c(c2)OCCO3)o1 -20.3%
CCOC(=O)c1c(S(=O)(=O)N2CCC(C(=O)NCc3ccc(F)cc3)CC2)c(C)n(C)c1C -11.2%
C=Cc1ccc(Cn2c(C(=O)O)c(CNC3CCCC3)c3ccc(C)cc32)cc1 -8.68%
Cc1cccc(N(C)C(=O)CCS(=O)(=O)c2ccc3c(c2)oc(=O)n3C)c1 -9.08% [at 11.5 µM]
COc1ccc(OCC(=O)NC2CC(=O)N(c3cccc(OC)c3)C2)cc1 (stereo unspecified) -17%
CCN(CC)CCOc1ccccc1C(=O)CCc1ccccc1 -7.41%
COc1ccc(NC(=O)c2cc(S(=O)(=O)N3CCCCCC3)cn2C)c(OC)c1 -4.37%
O=C(NCc1ccccc1Cl)C1CCCN(S(=O)(=O)c2cccc3nsnc23)C1 (stereo unspecified) -16.5%

— PubChem BioAssay AID1508623 (National Center for Advancing Translational Sciences (NCATS), 2021)
